Common to all, as to assay: glycan array binding signal (z-score within array); higher = stronger binding
What all share (settings): glycan notation: IUPAC condensed, linker removed

For assay [1], the target named is Gal(a1-3)Gal(b1-3)[Fuc(a1-4)]GlcNAc(b1-2)Man(a1-3)[Gal(a1-3)Gal(b1-3)[Fuc(a1-4)]GlcNAc(b1-2)Man(a1-6)]Man(b1-4)GlcNAc(b1-4)GlcNAc. The method in brief:
(§1)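 Glycan array data came from 3228 arrays in the Consortium for Functional Glycomics database, and only arrays with an available protein sequence were kept. Glycan names were put into IUPAC-condensed notation, and columns mapping to the same glycan were averaged. The binding signal is a within-array Z-score, averaged across arrays of one protein sequence run at different concentrations or buffers and across linkers. A negative Z-score can be read as non-binding.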

The target of assay [2] is Gal(a1-3)Gal(b1-4)Glc. The method in brief:
as §1

Assay [3] addresses Gal(a1-3)Gal(b1-4)GlcNAc. The method in brief:
as §1

In assay [4] the target is Gal(a1-3)Gal(b1-4)GlcNAc(b1-2)Man. The method in brief: as §1
The target in assay [5] is Gal(a1-3)Gal(b1-4)GlcNAc(b1-2)Man(a1-3)[Gal(a1-3)Gal(b1-4)GlcNAc(b1-2)Man(a1-6)]Man(b1-4)GlcNAc(b1-4)GlcNAc. The method, boiled down: as §1
The target in assay [6] is Gal(a1-3)Gal(b1-4)GlcNAc(b1-3)GalNAc. The method, boiled down: as §1
In assay [7] the target is Gal(a1-3)Gal(b1-4)GlcNAc(b1-6)GalNAc. The method in brief: as §1
Assay [8] concerns the target Gal(a1-3)Gal(b1-4)[Fuc(a1-3)]GlcNAc. The method, boiled down: as §1
Assay [9] deals with Gal(a1-3)Gal(b1-4)[Fuc(a1-3)]GlcNAc(b1-2)Man(a1-3)[Gal(a1-3)Gal(b1-4)[Fuc(a1-3)]GlcNAc(b1-2)Man(a1-6)]Man(b1-4)GlcNAc(b1-4)GlcNAc. The method, boiled down:
as §1

Assay [10] addresses Gal(a1-3)GalNAc. The method, boiled down: as §1
Assay [11] has as its target Gal(a1-3)[Gal(a1-4)]Gal(b1-4)GlcNAc. The method in brief: as §1
Assay [12] concerns the target Gal(a1-4)Gal(b1-3)GlcNAc(b1-2)Man(a1-3)[Gal(a1-4)Gal(b1-3)GlcNAc(b1-2)Man(a1-6)]Man(b1-4)GlcNAc(b1-4)GlcNAc. The method in brief: as §1
For assay [13], the target named is Gal(a1-4)Gal(b1-4)Glc. The method in brief: as §1
The target of assay [14] is Gal(a1-4)Gal(b1-4)GlcNAc. The method in brief:
as §1

Assay [15] addresses Gal(a1-4)Gal(b1-4)GlcNAc(b1-2)Man(a1-3)[Gal(a1-4)Gal(b1-4)GlcNAc(b1-2)Man(a1-6)]Man(b1-4)GlcNAc(b1-4)GlcNAc. The method in brief: as §1
The target in assay [16] is Gal(a1-4)Gal(b1-4)GlcNAc(b1-3)Gal(b1-4)Glc. The method, boiled down: as §1
Assay [17] deals with Gal(a1-4)GlcNAc. The method in brief:
as §1

The target in assay [18] is Gal(a1-6)Glc. The method, boiled down:
as §1

For assay [19], the target named is Gal(b1-2)Gal. The method in brief:
as §1

The target of assay [20] is Gal(b1-3)Gal. The method in brief: as §1
Assay [21] deals with Gal(b1-3)Gal(b1-4)GlcNAc. The method, boiled down:
as §1

The target of assay [22] is Gal(b1-3)GalNAc. The method in brief:
as §1

This is one part of the list.

B1: ECA (Erythrina cristagalli), P83410 (protein)
chain: VETISFSFSEFEPGNDNLTLQGAALITQSGVLQLTKINQNGMPAWDSTGRTLYTKPVHMWDSTTGTVASFETRFSFSIEQPYTRPLPADGLVFFMGPTKSKPAQGYGYLGVFNNSKQDNSYQTLAVEFDTFSNPWDPPQVPHIGIDVNSIRSIKTQPFQLDNGQVANVVIKYDAPSKILHVVLVYPSSGAIYTIAEIVDVKQVLPDWVDVGLSGATGAQRDAAETHDVYSWSFQASLPE
As for B1, the “glycan array binding signal (z-score)” value in [1] was 0.425; in assay [2], -0.362; in [3], -0.277; in [4] it was -0.517; in [5], -0.041; in assay [6], -0.544. Further, the “glycan array binding signal (z-score)” value in [7] is -0.319; in [8], -0.129; in assay [9], 10.5; in assay [10], -0.144; in assay [11] it was -0.103; in assay [12], 0.58. The “glycan array binding signal (z-score)” value is -0.224 in assay [13]; -0.173 in assay [14]; -0.264 in assay [15]; -0.368 in [16]; -0.291 in assay [17]; -0.217 in assay [18]. For the same molecule, the “glycan array binding signal (z-score)” value in assay [19] was -0.137; in assay [20], -0.296; in [21], -0.414; in assay [22], -0.392.

The values are drawn from the supplement of paper PMC8728848.
